{
  "sequences": {"note": "Sequences of proteins named here, by UniProt entry; tags and fusion partners are left off. Residues count along the entry.", "UniProt P18272, residues 1-600": "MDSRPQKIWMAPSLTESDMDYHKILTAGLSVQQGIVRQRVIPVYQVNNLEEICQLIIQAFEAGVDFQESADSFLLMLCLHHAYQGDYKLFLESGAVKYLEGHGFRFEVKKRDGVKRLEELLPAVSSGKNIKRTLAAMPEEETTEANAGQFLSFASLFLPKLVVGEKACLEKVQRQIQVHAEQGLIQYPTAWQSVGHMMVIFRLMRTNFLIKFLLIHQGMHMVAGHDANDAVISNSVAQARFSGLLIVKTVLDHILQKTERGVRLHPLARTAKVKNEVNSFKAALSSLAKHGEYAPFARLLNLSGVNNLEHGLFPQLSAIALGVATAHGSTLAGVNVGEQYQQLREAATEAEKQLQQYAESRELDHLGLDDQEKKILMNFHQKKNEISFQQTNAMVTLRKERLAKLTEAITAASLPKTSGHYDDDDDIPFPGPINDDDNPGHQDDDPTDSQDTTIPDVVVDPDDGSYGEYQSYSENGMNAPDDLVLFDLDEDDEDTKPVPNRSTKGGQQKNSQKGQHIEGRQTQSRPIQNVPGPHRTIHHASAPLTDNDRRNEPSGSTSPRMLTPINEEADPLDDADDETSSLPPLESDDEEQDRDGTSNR"},
  "source": "paper PMC6758638",
  "binders": {"B1": {"name": "SET and MYND domain-containing protein 3, endogenous (protein, UniProt Q9H7B4 1-428)", "chain": "MEPLKVEKFATAKRGNGLRAVTPLRPGELLFRSDPLAYTVCKGSRGVVCDRCLLGKEKLMRCSQCRVAKYCSAKCQKKAWPDHKRECKCLKSCKPRYPPDSVRLLGRVVFKLMDGAPSESEKLYSFYDLESNINKLTEDKKEGLRQLVMTFQHFMREEIQDASQLPPAFDLFEAFAKVICNSFTICNAEMQEVGVGLYPSISLLNHSCDPNCSIVFNGPHLLLRAVRDIEVGEELTICYLDMLMTSEERRKQLRDQYCFECDCFRCQTQDKDADMLTGDEQVWKEVQESLKKIEELKAHWKWEQVLAMCQAIISSNSERLPDINIYQLKVLDCAMDACINLGLLEEALFYGTRTMEPYRIFFPGSHPVRGVQVMKVGKLQLHQGMFPQAMKNLRLAFDIMRVTHGREHSLIEDLILLLEECDANIRAS"}},
  "biological_target": "NP-F([change]) (Zaire ebolavirus (strain Mayinga)) (UniProt P18272)",
  "experiment": "co-IP",
  "note": "These are yes or no findings as the source states them, for the method shown. Binding seen in cells or lysates may run through a third protein. Some entries that bind do so weakly or less than the wild type.",
  "data": [
    {"binder": "B1", "values": [
      {"measurement": "binding", "result": "binds"}
    ]}
  ]
}
